# Measured values reported in the supplement of paper PMC12217912.
# This is one part of the list. The full chains were built here from the parent and the listed change. Inactive controls read about 0.05.
# B1: TEV protease; numbered along this chain (parent)
# chain: MGESLFKGPRDYNPISSSICHLTNESDGHTTSLYGIGFGPFIITNKHLFRRNNGTLVVQSLHGVFKVKDTTTLQQHLVDGRDMIIIRMPKDFPPFPQKLKFREPQREERICLVTTNFQTKSMSSMVSDTSCTFPSGDGIFWKHWIQTKDGQCGSPLVSTRDGFIVGIHSASNFTNTNNYFTSVPKNFMELLTNQEAQQWVSGWRLNADSVLWGGHKVFMVKPEEPFQPVKEATQL
# Variants of: B1
# Assay: raw area under fraction-flipped curve 0-4 h after induction (AUC4h, not background-subtracted), DNA-recorder readout of cleavage of the substrate (dimensionless); higher = more cleavage of the substrate by the protease variant
# Conditions: temperature: 34 °C; time window: 0-4 h after rhamnose induction
# 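Note: Bxb1 expression induced with 0.2% (w/v) L-rhamnose at OD600 near 0.5, cultures sampled hourly, flipped fraction per protease–substrate barcode pair counted by paired-end Illumina sequencing.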
Variant,area with substrate ENLYFDS,area with substrate ENLYFES,area with substrate ENLYFIS,area with substrate ENLYFKS,area with substrate ENLYFMS,area with substrate ENLYFNS,area with substrate ENLYFPS,area with substrate ENLYFSS,area with substrate ENLYFVS,area with substrate ENLYFWS,area with substrate ENLYFFS,area with substrate ENLYFRS,area with substrate ENLYFGS,area with substrate ENLYFTS,area with substrate ENLYFCS,area with substrate ENLYFHS,area with substrate ENLYFLS,area with substrate ENLYFYS
MGESLFKGPRDYNPISSSICHLTNESDGHTTSLYGIGFGPFIITNKHLFRRNNGTLVVQLLHGVFKVKDTTTLQQHLVDGRDMIIIRMPKDFPPFPQKLKFREPQREERICLVTTNFQTKSMSSMVSDTSCTFPSGDGIFWKHWIQTKDGQCGSPLVSTRDGFIVGIHSASNFTNTNNYFTSVPKNFMELLTNQEAQQWVSGWRLNADSVLWGGHKVFMVKPEEPFQPVKEATQL [S60L],0.0559,0.0653,0.0488,0.0633,0.0627,0.0638,0.0543,0.0503,0.0569,0.0643,–,–,–,–,–,–,–,–
MGESLFKGPRDYNPISSSICHLTNESDGHTTSLYGIGFGPFIITNKHLFRRNNGTLVVQSLHGVFKVKDTTTLQQHLVDGRDMIIIRMPKDFPPFPQKLKFREPQREERILLVTTNFQTKSMSSMVSDTSCTFPSGDGIFWKHWIQTKDGQCGSPLVSTRDGFIVGIHSASNFTNTNNYFTSVPKNFMELLTNQEAQQWVSGWRLNADSVLWGGHKVFMVKPEEPFQPVKEATQL [C111L],0.0431,–,0.0639,0.0794,0.0645,–,0.0584,0.0471,–,–,0.0683,0.0423,–,–,–,–,–,–
MGESLFKGPRDYNPISSSICHLTNESDGHTTSLYGIGFGPFIITNKHLFRRNNGTLVVQSLHGVFKVKDTTTLQQHLVDGRDMIIIRMPKDFPPFPQKLKFREPQREERICLVTTNFQTKSMSSMVSDTSCTFPSGLGIFWKHWIQTKDGQCGSPLVSTRDGFIVGIHSASNFTNTNNYFTSVPKNFMELLTNQEAQQWVSGWRLNADSVLWGGHKVFMVKPEEPFQPVKEATQL [D137L],0.0561,–,0.0803,0.0631,0.0601,0.0635,0.0561,–,–,0.0613,–,0.0669,0.074,0.059,–,–,–,–
MGESLFKGPRDYNPISSSICHLTNESDGHTTSLYGIGFGPFIITNKHLFRRNNGTLVVQSLHGVFKVKDTTTLQQHLVDGRDMIIIRMPKDFPPFPQKLKFREPQREERICLVTTNFQTKSMSSMVSDTSCTFPSGDGIFWKHWIQTKDGQCGSPLVSTRDGFIVGIHSASNFTNTNNYFTSVPKNFMELLTNQEAQQWVSGWRLNADSVLWGGHKAFMVKPEEPFQPVKEATQL [V217A],0.0362,0.056,0.0603,0.0391,0.0574,0.0695,0.0546,0.0447,–,–,–,–,0.0652,–,0.068,0.0495,0.0591,0.0576
MGESLFKGPRDYNPISSSICHLTNESDGHTTSLYGIGFGPFIITNKHLFRRNNGTLVVQSLHGVFKVKDTTTLQQHLVDGRDMIIIRMPKDFPPFPQKLKFREPQREERICLVTTNFQTKSMSSMVSDTSCTFPSGDGIFWKHWIQTKDGQCGSPLVSTRDGFIVGIHSASNFTNTNNYFTSVPKNFMELLTNQEAQQWVSGWRLNADSVLWGGHKVFMVKPEEPFQPVVEATQL [K230V],–,0.0672,0.049,0.0971,0.0745,–,0.0581,0.0642,–,0.065,0.0615,0.0605,–,0.0649,0.0619,0.0598,–,0.0494
MGESLFKGPRDYNPISSSICHLTNESDGHTTSLYGIGFGPFIITNKHLVRRNNGTLVVQSLHGVFKVKDTTTLQQHLVDGRDMIIIRMPKDFPPFPQKLKFREPQREERICLVTTNFQTKSMSSMVSDTSCTFPSGDGIFWKHWIQTKDGQCGSPLVSTRDGFIVGIHSASNFTNTNNYFTSVPKNFMELLTNQEAQQWVSGWRLNADSVLWGGHKVFMVKPEEPFQPVKEATQL [F49V],0.0427,0.0596,0.0531,0.0563,0.0609,0.051,0.0597,0.0477,–,0.0549,–,0.0417,0.0888,0.031,–,0.0818,0.0593,–
MGESLFKGPRDYNPISSSICHWTNESDGHTTSLYGIGFGPFIITNKHLFRRNNGTLVVQSLHGVFKVKDTTTLQQHLVDGRDMIIIRMPKDFPPFPQKLKFREPQREERICLVTTNFQTKSMSSMVSDTSCTFPSGDGIFWKHWIQTKDGQCGSPLVSTRDGFIVGIHSASNFTNTNNYFTSVPKNFMELLTNQEAQQWVSGWRLNADSVLWGGHKVFMVKPEEPFQPVKEATQL [L22W],–,0.0456,0.0412,–,0.0124,0.0479,0.0432,0.0474,0.0394,0.0397,0.052,0.0278,–,0.0521,–,0.0499,0.054,0.0439
MGESLFKGPRDYNPISSSICHLTNESDGHTTSLYGIGFGPFIITNKHLFRRNNGTLVVQSLHGVFKVKDTTTLQQHLVDGRDMIIIRMPKDFPPFPQKLKFREPQREERICLVTTNFQTKSMSSMVSDTSCTFPSGDGIFWKHWIQTKDGQCGSPLVSTRDGFIVGIHSASNFTNTNNYFTSVPKNFMELLTNQEAQQWVSGWRLNADSVLWGGHKVFMVKPEEPFQPVKHATQL [E231H],0.053,0.0588,0.0632,0.0632,0.067,0.0931,–,0.0552,–,–,–,0.0671,0.0672,0.0662,–,0.0583,–,0.0394
MGESLFKGPRDYNPISSSICHLTNESDGHTTSLYGIGFGPFIITNKHLFRRNNGTLVVQSLHGVFKVKDTTTLQQHLVDGRDMIIIRMPKDFPIFPQKLKFREPQREERICLVTTNFQTKSMSSMVSDTSCTFPSGDGIFWKHWIQTKDGQCGSPLVSTRDGFIVGIHSASNFTNTNNYFTSVPKNFMELLTNQEAQQWVSGWRLNADSVLWGGHKVFMVKPEEPFQPVKEATQL [P94I],0.0479,0.0556,0.0582,–,0.1,0.0752,0.0471,0.0737,0.0516,0.0698,0.0811,–,–,0.0559,–,0.0577,–,0.0724
